Screen size: about 48,000 compounds; about 550 (1.1%) were called active. Inconclusive results (about 4%) are left out. No stated cut-off is given here; in the data, active means potency below about 15 µM; inconclusive means mostly about 16 µM to 33 µM; inactive means weaker than that. Some of the results follow.
biological target: Lysosomal acid glucosylceramidase (Homo sapiens) (UniProt P04062); assay: Glucocerebrosidase; conditions: purified enzyme, resorufin glucoside fluorescence (screen aimed at inhibitors), 20 min;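 further: the screen sought inhibitors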
Sequence of UniProt P04062 (P04062 whole entry, looked up): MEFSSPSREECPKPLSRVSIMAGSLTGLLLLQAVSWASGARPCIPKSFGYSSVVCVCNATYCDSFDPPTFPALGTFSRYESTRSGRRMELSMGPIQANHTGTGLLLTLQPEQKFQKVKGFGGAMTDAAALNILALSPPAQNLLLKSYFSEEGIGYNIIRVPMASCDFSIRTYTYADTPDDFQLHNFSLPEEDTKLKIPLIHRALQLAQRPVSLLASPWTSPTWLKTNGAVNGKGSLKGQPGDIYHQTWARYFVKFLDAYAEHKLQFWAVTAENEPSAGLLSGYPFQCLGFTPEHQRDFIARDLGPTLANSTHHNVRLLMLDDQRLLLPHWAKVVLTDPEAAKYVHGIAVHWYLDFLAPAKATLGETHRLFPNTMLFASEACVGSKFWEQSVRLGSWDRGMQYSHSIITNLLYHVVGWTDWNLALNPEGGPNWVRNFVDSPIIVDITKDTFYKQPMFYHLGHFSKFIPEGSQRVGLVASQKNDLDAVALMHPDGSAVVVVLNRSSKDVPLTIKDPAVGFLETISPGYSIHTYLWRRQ
Procedure, shortened: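 Compounds titrated against 0.2 nM normal enzyme, 30 uM resorufin beta-D-glucopyranoside substrate, citrate/phosphate buffer with taurocholate and tween-20, pH 5.9. Reaction ran 20 min at room temperature; fluorescence (Ex 548/Em 600) gave AC50.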
Potency means the concentration at half of the fitted maximal effect.

Potency, inactive:
CCCN1CCN(CCCNC(=O)C2CCN(c3nnc(-n4cccc4)s3)CC2)CC1 > 76.9 µM
CCOC(=O)c1c(NC(=O)CSc2nnc(C)c(=O)[nH]2)sc2c1CCC2 > 76.9 µM
Cc1ccnc(SCC(=O)Nc2sc3c(c2C#N)CCCC3)n1 > 76.9 µM
COc1ccc(C(=O)COC(=O)CN2C(=O)NC(C)(C)C2=O)cc1OC > 76.9 µM
O=S(=O)(c1ccc2ccccc2c1)n1cnc2ccccc21 > 76.9 µM
COc1ccccc1NC(=O)C(C)NS(=O)(=O)c1ccccc1 (configuration not stated) > 76.9 µM
Cc1noc(C)c1COC(=O)Cn1c(C)nc2ccccc21 > 76.9 µM
COc1ccc(OCCNC(=O)c2ccccc2OCC(=O)N2CCCCC2)cc1 > 76.9 µM
CCOc1ccc(N2CC(C(=O)OC)CC2=O)cc1 (configuration not stated) > 76.9 µM
NC(=O)C1CCN(C(=O)C2c3ccccc3C(=O)N3CCc4ccccc4C23)CC1 (configuration not stated) > 76.9 µM
O=C(NCc1cccnc1)C(C(=O)c1ccc(F)cc1)n1ccccc1=O (configuration not stated) > 76.9 µM
CC1CC1C(=O)OCC(=O)NCc1ccccc1Cl (configuration not stated) > 76.9 µM
O=C1c2ccccc2C(=O)N1c1nc(-c2cccs2)cs1
CSc1ccccc1C(=O)Nc1cccc(N(C)S(C)(=O)=O)c1 > 76.9 µM
CC(NC(=O)COC(=O)CCNC(=O)c1ccco1)C12CC3CC(CC(C3)C1)C2 (configuration not stated)
COc1nc(-c2ccc(Cl)cc2)ccc1-c1noc(-c2ccco2)n1 > 76.9 µM
COc1ccc(OC)c(CN2CCN(C(=O)c3cccs3)CC2)c1 > 76.9 µM
CCn1c2c(c3ccc(OC)cc31)CCCC2=O > 76.9 µM
O=C(COc1ccc(-n2cnnn2)cc1)N1CCN(c2ccc(F)cc2)CC1 > 76.9 µM
CCOc1ccc(-n2ccnc2SCC(=O)NCc2ccc3c(c2)OCO3)cc1 > 76.9 µM
N#Cc1nc(-c2ccc(OCc3ccccc3)cc2)oc1NCc1cccnc1 > 76.9 µM
CCOC(=O)NCc1cc(-c2nn(C)c(=O)c3ccccc23)ccc1C > 76.9 µM
CCC(=O)NCCNC(=O)c1c(SC)nsc1SC > 76.9 µM
O=c1c(-c2ccccc2)coc2c(CN3CCCC3)c(O)ccc12 > 76.9 µM
Cc1cc(NC(=O)c2ccc3c(c2)C(=O)N(Cc2cccnc2)C3=O)no1 > 76.9 µM
COc1ccc(Cl)cc1S(=O)(=O)N1CCN(Cc2ccc3c(c2)OCO3)CC1
Cc1cccc(-n2ncc3c(N4CCc5ccccc54)ncnc32)c1 > 76.9 µM
O=C(Nc1nnc(-c2ccccc2)o1)NC1CCCCC1 > 76.9 µM
Cc1nc(N2CCN(C(=O)c3ccco3)CC2)c2c3c(sc2n1)CCC3 > 76.9 µM
Cc1nn(-c2cc(N3CCOCC3)ccc2N)c(=O)c2ccccc12 > 76.9 µM
Cc1nn2c(NCCCN3CCOCC3)c3c(nc2c1-c1ccccc1)CCC3
COCCn1c(=O)[nH]c2cc(C(=O)NCCN3CCN(c4ccc(OC)cc4)CC3)ccc2c1=O > 76.9 µM
CC(C)c1ccc(S(=O)(=O)N2CCN(CC(=O)Nc3ccc4c(c3)OCO4)CC2)cc1 > 76.9 µM
N#CN=C1SCCS1 > 76.9 µM
O=C(Nc1nncs1)c1cccc(S(=O)(=O)N2CCCC2)c1 > 76.9 µM
CCCCC(=O)Nc1cc(NC(=O)CCCC)cc(C(=O)O)c1 > 76.9 µM
CC(C)n1c(Sc2nccn2C)nc2c1c(=O)n(C)c(=O)n2C > 76.9 µM
c1cnc(N2CC[N+]3(CCCC3)CC2)nc1 > 76.9 µM
Cc1cc(NC(=O)CSc2nc(CCC3CCCC3)nc3ccccc23)no1 > 76.9 µM
CCOC(=O)NCCc1c(C)nc2c(c(C)nn2C(C)(C)C)c1C > 76.9 µM
O=C(O)CCCNS(=O)(=O)c1ccc2ccccc2c1 > 76.9 µM
O=C(NC1CCCCCCC1)c1ccc2c(c1)OCO2 > 76.9 µM
COc1ccc(C2C(CC(=O)O)=C(O)C(=O)N2c2ccccc2)cc1 (configuration not stated) > 76.9 µM
C=CCOc1cccc(C2C(C(=O)c3ccc(C)o3)=C(O)C(=O)N2c2nccs2)c1 (configuration not stated) > 76.9 µM
O=C(O)CCn1cnc2ccccc2c1=O > 76.9 µM
O=C(N1CCOCC1)N1CCN(S(=O)(=O)N2CCOCC2)CC1 > 76.9 µM
CCSc1nnc(NC(=O)c2ccc(C)o2)s1 > 76.9 µM
CCn1c(=O)cc(SCC(=O)N2CCCCC2)c2ccccc21 > 76.9 µM
CCc1c(C)nc(N2CCN(Cc3ccccc3)CC2)[nH]c1=O > 76.9 µM
CCn1nc(C(=O)OCC(=O)N2c3ccccc3CC2C)c2ccccc2c1=O (configuration not stated) > 76.9 µM
Cc1ccc(C)c(-c2nc3ccc(N)cc3[nH]2)c1
CN(C)c1cc[n+](Cc2ccccc2)cc1 > 76.9 µM
COc1cccc(S(=O)(=O)Nc2ccc(C(=O)N3CCOCC3)cc2)c1 > 76.9 µM
Cc1ccc(N2C(=O)Nc3ccc(Br)cc3C2(O)C(=O)NCCCN(C)C)cc1C (configuration not stated) > 76.9 µM
O=C(CN1CCN(C(=O)c2cccs2)CC1)NC1CCCCC1 > 76.9 µM
Cc1ccc(S(=O)(=O)Cn2nnnc2CN2CCCC3(CCCCC3)C2)cc1 > 76.9 µM
O=C(CCc1ccc(S(=O)(=O)N2CCOCC2)cc1)Nc1cc(Cl)ccc1N1CCOCC1 > 76.9 µM
O=C(c1cc(-n2cnnc2)ccc1Cl)N1CCN(c2nc(-c3ccccc3)cs2)CC1 > 76.9 µM
COCCn1nnnc1C(c1ccc(OC)cc1)N1CCN(c2ccccc2F)CC1 (configuration not stated) > 76.9 µM
CCc1c(C)nc(N)n2c(SCC(=O)N3CCCC(C)C3)nnc12 (configuration not stated) > 76.9 µM
COC(=O)c1sc(NC(=O)c2ccoc2C)nc1C > 76.9 µM
CCCn1cnc2c(c1=O)c1nc3ccccc3nc1n2CCC1=CCCCC1 > 76.9 µM
CC(C)OC(=O)CSc1nc2ncc(Cl)cc2[nH]1 > 76.9 µM
Cn1c(-c2ccccc2)cnc1SCc1nc2ccccc2c(=O)[nH]1 > 76.9 µM
CCCC1(C(=O)OCC)NC(c2ccc(N(C)C)cc2)C2C(=O)N(c3ccccc3)C(=O)C21 (configuration not stated) > 76.9 µM
O=C(NCc1ccc2c(c1)OCO2)c1c(F)c(F)c(F)c(F)c1F > 76.9 µM
CCC1CCCCN1C(=O)CSc1nnc(-c2ccc(Cl)s2)o1 (configuration not stated) > 76.9 µM
O=C(C1CCN(S(=O)(=O)c2cccnc2)CC1)N1CCN(c2ccc(Cl)cc2)CC1 > 76.9 µM
CCOC(=O)c1c(C)[nH]c(C(=O)COC(=O)CNC(=O)C2CCCCC2)c1C > 76.9 µM
CC(C)c1ccc2oc(=O)cc(CN3CCN(c4ccc(F)cc4)CC3)c2c1 > 76.9 µM
Cc1nn(Cc2ccccc2Cl)c(C)c1C(=O)N1CCN(c2ccccc2)CC1 > 76.9 µM
CCn1cnc2c1c(=O)n(Cc1nnc3n1-c1ccccc1SC3)c(=O)n2Cc1ccccc1 > 76.9 µM
Cc1ccc(C(=O)CSc2nc3cc(S(=O)(=O)N4CCOCC4)ccc3o2)cc1 > 76.9 µM
CCCCc1c(O)nc(SCC(=O)c2ccccc2)[nH]c1=O > 76.9 µM
Cc1c(Cl)cccc1NC(=O)CSCC(N)=O > 76.9 µM
CCN(Cc1cc2ccc(C)cc2[nH]c1=O)C(=O)c1ccncc1 > 76.9 µM
O=c1[nH]cnc2scc(-c3ccsc3)c12 > 76.9 µM
Cc1cccc(CCNC(=O)CCc2nc(-c3ccccc3F)no2)c1 > 76.9 µM
COc1ccc(Cc2nnc(SCC(=O)Nc3ncc(C)s3)o2)cc1 > 76.9 µM
CCOC(=O)CNc1nc(-c2ccncc2)nc2ccccc12 > 76.9 µM
COc1ccc(C)cc1S(=O)(=O)Nc1ccccc1C > 76.9 µM
[O-][n+]1ccc(C2CC2)cc1 > 76.9 µM
COc1cc(-c2nc(S(=O)(=O)c3ccc(C)cc3)c(N(C)C)o2)cc(OC)c1OC > 76.9 µM
Cc1ccc(C(=O)O)cc1S(=O)(=O)NCC1CCCO1 (configuration not stated) > 76.9 µM
O=C1CCCN1CCCNc1ncnc2c1[nH]c1ccccc12 > 76.9 µM
CCCS(=O)(=O)N1CCC(C(=O)N2CCC(Cc3ccccc3)CC2)CC1 > 76.9 µM
Cc1cc(C(=O)Nc2sc(C)c(C)c2C#N)no1 > 76.9 µM
O=C(NCC1CCCO1)NC1(C(F)(F)F)Oc2ccccc2O1 (configuration not stated) > 76.9 µM
COc1cccc(C(=O)Nc2cc(NC(=O)c3ccco3)ccc2OC)c1 > 76.9 µM
COc1cccc(C(c2nnnn2Cc2ccccc2)N2CCN(C3CCCC3)CC2)c1OC (configuration not stated) > 76.9 µM
Cc1ccc(-c2nsc3c(N4CCN(C(=O)c5ccco5)CC4)ncnc23)cc1 > 76.9 µM
CC1(C)CC(=O)c2cc(OCC(=O)NCCN3CCCc4ccccc43)ccc2O1 > 76.9 µM
